No constants are given. Whether binding was seen depends on the method and setting. Binding seen in cells or lysates may run through a third protein. Some entries that bind do so weakly or less than the wild type. For part of these data: Sequences can lack the tags named with a protein.
Columns and labels:
[1] = target: T1, Flag-tagged ZASC1, full length, wild type (human) (UniProt Q9UID6); test: co-IP; HEK293 cells co-transfected; immunoprecipitation of the Flag-tagged protein with anti-Flag beads, blot for the Myc- or HA-tagged partner (Fig 1C, S1, S3, Fig 7A, 7D); TBSN buffer; micrococcal nuclease in the immunoprecipitation
T1 sequence: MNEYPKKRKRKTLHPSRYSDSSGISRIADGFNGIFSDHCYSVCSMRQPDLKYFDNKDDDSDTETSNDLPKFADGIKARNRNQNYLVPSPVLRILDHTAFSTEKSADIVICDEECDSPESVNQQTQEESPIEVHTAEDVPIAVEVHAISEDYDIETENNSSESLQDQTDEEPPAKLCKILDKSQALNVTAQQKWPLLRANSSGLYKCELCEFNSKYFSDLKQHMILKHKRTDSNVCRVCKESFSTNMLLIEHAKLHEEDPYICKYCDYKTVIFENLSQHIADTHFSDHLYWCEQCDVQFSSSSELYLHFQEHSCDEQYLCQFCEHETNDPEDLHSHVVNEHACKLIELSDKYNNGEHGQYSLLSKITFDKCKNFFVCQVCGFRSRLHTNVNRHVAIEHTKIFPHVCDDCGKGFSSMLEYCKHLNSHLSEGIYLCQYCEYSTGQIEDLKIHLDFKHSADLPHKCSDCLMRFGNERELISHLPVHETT

Sequences of proteins named here, by UniProt entry; tags and fusion partners are left off.
UniProt P12520: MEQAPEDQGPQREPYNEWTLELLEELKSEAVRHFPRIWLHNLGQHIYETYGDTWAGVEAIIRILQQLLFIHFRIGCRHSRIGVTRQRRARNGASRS
UniProt Q9UKV0: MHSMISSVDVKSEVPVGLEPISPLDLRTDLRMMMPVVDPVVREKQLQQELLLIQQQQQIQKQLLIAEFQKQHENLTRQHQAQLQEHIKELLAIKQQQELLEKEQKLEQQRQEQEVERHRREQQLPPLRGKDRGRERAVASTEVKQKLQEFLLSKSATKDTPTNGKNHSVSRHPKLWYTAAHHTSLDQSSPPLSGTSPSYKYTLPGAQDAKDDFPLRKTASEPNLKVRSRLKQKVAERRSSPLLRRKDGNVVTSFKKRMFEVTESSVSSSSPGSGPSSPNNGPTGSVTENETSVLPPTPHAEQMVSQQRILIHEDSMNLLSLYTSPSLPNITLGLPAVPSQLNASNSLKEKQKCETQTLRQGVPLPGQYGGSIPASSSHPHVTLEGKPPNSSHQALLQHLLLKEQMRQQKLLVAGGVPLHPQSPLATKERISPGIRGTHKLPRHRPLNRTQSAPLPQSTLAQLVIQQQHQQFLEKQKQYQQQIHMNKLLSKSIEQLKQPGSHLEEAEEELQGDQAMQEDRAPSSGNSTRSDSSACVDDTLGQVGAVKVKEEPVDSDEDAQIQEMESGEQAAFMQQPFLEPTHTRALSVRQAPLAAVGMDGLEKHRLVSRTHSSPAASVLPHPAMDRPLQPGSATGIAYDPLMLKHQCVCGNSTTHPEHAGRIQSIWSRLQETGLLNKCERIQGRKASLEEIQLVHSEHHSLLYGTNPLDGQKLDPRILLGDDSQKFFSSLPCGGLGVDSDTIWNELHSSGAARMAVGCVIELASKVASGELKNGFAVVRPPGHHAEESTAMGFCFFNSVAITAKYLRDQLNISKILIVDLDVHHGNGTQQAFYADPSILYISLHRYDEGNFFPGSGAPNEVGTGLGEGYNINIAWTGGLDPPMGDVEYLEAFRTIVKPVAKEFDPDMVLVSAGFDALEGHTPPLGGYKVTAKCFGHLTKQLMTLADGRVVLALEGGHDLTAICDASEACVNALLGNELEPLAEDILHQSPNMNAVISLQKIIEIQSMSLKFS
UniProt Q13547: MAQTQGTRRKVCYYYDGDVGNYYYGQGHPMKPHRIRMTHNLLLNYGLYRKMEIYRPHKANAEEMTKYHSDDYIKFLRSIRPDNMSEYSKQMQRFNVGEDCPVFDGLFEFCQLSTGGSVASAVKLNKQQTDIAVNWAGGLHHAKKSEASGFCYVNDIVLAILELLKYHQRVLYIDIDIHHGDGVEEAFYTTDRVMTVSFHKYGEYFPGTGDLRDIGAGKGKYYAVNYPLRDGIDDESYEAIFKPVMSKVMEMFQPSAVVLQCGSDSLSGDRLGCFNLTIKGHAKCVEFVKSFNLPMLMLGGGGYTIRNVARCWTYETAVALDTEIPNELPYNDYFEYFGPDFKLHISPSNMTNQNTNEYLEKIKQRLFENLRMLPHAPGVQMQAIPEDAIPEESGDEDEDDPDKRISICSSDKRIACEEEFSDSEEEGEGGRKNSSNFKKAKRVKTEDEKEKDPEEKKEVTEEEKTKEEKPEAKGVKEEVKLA
UniProt O15379: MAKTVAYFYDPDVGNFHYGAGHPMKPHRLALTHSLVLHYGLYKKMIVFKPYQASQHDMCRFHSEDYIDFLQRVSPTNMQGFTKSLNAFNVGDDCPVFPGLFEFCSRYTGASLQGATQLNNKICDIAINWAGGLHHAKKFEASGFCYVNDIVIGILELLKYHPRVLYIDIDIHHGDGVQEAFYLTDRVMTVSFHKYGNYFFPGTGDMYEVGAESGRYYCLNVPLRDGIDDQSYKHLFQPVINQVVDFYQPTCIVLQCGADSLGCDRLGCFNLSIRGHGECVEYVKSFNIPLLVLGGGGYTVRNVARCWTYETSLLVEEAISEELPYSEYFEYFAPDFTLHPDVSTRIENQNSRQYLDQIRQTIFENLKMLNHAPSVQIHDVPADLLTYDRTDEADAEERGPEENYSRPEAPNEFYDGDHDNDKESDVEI
UniProt P56524: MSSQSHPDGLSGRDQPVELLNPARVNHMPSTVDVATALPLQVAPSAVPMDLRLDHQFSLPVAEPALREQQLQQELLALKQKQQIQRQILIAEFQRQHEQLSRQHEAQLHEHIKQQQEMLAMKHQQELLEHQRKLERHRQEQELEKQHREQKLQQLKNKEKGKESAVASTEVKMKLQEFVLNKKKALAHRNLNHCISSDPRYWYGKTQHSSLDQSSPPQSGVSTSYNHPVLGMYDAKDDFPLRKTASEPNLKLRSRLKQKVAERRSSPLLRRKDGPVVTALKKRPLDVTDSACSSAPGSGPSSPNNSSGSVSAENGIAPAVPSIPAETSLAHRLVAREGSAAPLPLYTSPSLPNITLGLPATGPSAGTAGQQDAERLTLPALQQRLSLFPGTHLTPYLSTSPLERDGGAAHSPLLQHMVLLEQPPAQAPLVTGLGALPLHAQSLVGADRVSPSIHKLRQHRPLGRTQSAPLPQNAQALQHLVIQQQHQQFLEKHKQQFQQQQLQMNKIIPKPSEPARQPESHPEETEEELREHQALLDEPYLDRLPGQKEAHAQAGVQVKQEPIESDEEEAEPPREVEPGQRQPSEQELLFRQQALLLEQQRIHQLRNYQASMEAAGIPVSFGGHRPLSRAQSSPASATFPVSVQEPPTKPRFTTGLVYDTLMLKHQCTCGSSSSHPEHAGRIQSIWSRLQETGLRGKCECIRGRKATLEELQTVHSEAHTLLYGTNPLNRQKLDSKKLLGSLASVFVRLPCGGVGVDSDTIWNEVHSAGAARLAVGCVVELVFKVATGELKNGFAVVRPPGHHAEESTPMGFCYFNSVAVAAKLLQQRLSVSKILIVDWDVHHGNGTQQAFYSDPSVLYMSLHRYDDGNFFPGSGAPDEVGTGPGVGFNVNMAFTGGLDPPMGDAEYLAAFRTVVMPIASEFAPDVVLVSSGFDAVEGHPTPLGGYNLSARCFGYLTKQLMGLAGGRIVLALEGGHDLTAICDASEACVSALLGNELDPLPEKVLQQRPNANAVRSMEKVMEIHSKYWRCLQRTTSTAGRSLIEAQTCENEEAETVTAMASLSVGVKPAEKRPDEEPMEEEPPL
UniProt Q9UBN7: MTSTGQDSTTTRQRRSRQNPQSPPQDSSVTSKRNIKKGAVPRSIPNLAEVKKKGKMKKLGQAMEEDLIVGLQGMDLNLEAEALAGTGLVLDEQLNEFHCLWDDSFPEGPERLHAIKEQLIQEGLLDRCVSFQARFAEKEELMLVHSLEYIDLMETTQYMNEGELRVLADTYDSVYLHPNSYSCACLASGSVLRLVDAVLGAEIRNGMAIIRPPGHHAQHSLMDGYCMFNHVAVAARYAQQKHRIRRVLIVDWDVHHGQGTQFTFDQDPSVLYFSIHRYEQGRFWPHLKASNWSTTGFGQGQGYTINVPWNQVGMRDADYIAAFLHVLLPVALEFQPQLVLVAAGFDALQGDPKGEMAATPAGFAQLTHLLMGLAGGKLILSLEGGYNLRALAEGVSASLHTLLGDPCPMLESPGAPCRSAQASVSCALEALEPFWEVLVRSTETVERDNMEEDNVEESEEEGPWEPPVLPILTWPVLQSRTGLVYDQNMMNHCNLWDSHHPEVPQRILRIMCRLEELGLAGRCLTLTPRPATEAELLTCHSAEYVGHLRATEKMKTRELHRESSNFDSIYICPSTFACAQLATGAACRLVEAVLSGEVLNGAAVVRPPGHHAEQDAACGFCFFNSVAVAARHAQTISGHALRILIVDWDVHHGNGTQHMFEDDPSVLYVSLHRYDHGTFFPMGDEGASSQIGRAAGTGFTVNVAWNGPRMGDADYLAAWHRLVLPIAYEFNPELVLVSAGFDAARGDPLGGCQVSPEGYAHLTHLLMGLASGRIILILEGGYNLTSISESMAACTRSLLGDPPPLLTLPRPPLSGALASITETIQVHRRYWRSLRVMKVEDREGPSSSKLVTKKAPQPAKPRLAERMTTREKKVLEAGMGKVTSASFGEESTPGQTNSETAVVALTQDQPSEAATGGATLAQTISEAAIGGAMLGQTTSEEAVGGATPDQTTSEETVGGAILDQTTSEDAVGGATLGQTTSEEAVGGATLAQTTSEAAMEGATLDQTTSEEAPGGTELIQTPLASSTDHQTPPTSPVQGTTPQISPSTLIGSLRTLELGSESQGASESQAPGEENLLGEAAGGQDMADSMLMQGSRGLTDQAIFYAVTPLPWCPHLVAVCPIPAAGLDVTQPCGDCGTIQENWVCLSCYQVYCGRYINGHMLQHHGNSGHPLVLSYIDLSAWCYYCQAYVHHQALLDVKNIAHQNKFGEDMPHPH
UniProt P08047: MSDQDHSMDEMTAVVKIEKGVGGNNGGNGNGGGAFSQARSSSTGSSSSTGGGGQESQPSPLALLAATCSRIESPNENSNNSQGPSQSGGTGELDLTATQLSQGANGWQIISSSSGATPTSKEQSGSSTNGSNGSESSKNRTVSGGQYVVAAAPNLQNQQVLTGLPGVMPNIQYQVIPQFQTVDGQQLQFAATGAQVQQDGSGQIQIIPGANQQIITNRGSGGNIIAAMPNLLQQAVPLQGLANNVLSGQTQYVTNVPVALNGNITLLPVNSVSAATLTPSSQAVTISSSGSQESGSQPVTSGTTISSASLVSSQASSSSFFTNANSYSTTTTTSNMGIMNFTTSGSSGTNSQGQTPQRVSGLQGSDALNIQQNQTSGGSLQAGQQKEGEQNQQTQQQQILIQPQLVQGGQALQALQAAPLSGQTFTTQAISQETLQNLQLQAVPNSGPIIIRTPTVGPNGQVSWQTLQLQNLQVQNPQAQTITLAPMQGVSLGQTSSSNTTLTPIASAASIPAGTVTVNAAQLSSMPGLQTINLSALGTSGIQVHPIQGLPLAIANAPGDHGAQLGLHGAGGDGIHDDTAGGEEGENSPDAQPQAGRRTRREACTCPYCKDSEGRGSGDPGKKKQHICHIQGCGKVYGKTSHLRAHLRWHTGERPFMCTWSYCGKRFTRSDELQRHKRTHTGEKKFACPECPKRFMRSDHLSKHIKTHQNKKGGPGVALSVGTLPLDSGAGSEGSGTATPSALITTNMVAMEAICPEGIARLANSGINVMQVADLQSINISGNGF

[2] = target: Flag-tagged HIV-1 Vpr (HIV-1 (NL43)) (UniProt P12520); test: co-IP
[3] = target: T2, V5-tagged HDAC10 (UniProt Q969S8); test: co-IP; HEK293 cells co-transfected with V5-tagged HDAC10 and Myc-ZBTB2 (Fig 7B); the antibody that precipitated V5-HDAC10 is not told
T2 sequence: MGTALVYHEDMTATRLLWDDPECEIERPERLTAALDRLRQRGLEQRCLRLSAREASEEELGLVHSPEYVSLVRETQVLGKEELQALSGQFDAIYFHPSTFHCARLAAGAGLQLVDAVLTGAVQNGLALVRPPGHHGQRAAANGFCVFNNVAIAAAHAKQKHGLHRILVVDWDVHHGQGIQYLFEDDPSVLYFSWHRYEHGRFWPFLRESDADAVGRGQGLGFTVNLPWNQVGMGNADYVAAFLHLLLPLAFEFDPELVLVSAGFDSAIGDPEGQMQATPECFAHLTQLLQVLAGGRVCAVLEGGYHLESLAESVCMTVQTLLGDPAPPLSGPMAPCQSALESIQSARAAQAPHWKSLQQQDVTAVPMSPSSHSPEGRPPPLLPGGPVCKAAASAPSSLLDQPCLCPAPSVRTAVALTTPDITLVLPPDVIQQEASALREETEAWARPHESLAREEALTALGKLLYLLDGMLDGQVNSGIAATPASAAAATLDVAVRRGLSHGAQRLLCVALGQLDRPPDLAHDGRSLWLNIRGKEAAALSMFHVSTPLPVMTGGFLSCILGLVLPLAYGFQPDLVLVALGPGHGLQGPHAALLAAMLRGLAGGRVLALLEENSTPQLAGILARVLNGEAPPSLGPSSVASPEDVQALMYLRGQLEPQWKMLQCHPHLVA

[4] = target: FLAG-tagged HDAC9 (UniProt Q9UKV0); test: co-IP; HEK293 cells co-transfected; immunoprecipitation of the Flag-tagged protein with anti-Flag beads, blot for the Myc- or HA-tagged partner (Fig 1C, S1, S3, Fig 7A, 7D); TBSN buffer; micrococcal nuclease in the immunoprecipitation
[5] = target: Flag-tagged HDAC1 (UniProt Q13547); test: as above
[6] = target: Flag-tagged HDAC3 (UniProt O15379); test: as above
[7] = target: Flag-tagged HDAC4 (UniProt P56524); test: as above
[8] = target: Flag-tagged HDAC6 (UniProt Q9UBN7); test: as above
[9] = target: T3, Flag-tagged HDAC7 (UniProt Q8WUI4); test: as above
T3 sequence: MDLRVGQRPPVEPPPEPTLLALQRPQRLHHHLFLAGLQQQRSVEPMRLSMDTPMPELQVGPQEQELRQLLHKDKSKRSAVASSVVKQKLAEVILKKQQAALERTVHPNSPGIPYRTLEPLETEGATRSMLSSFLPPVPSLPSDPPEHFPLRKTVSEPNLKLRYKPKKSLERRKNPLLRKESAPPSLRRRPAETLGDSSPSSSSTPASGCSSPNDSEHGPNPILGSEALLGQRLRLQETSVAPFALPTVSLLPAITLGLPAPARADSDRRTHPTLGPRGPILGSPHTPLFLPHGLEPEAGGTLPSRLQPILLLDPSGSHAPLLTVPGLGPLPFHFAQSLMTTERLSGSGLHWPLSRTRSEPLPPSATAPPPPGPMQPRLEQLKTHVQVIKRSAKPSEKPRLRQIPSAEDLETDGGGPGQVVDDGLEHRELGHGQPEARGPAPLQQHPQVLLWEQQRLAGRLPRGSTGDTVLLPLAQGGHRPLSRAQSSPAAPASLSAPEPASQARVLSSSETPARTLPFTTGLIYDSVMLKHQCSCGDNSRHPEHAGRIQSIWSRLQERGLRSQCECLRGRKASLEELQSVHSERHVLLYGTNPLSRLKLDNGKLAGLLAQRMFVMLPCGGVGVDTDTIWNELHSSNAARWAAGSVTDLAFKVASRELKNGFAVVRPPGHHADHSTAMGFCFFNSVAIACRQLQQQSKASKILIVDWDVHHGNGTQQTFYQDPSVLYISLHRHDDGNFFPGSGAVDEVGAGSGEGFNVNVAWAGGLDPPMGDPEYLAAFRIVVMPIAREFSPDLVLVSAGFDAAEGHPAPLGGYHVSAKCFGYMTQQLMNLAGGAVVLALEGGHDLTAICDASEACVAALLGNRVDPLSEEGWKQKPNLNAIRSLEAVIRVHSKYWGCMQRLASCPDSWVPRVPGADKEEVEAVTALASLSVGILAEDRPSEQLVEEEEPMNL

## Myc-Sp1 (from UniProt P08047 1-785)
[1]
  binding: no binding

## Myc-tagged ZBTB2, full length, wild type (from UniProt Q8N680 1-514)
[2]
  binding: no binding
[3]
  binding: binds weakly
[4]
  binding: binds
[5]
  binding: binds
[6]
  binding: binds weakly
[7]
  binding: binds
[8]
  binding: binds weakly
[9]
  binding: binds

From paper PMC7946322
